B1: LINE1-mini (parent)
chain: GGCAGAGCUCAACACAGCGUGGCAAAGUGGCUGUGGCUAGACUGCC

Read counts are not given, so values of variants with three or more changes are uncertain.

This data set covers variants of B1. Nature of the data set: self-cleavage, relative activity (ratio to wild type); higher = more cleavage; in vitro, sequencing; the parent is a self-cleaving ribozyme.
In the case of C10A G19C G22C, the self-cleavage came out at 0.02. With C10A G30U A39C, the self-cleavage came out at 0.09. The value for C10A G30C G36C G40U C45G was 0.02; that for C10A G21U C45U was 0.05. With C10A G22U C46A, the self-cleavage came to 0.01.

Consider C10A U20C A25C G29C C37G, for which the self-cleavage worked out at 0. In the case of C10A U38C C46G, the self-cleavage was determined as 0.15.

As to C10A U20A A26G U28G, the self-cleavage stood at 0.03. On to C10A G21U G33U, for which the self-cleavage came out at 0.07.

In the case of C10G A11C C13A U38C, the self-cleavage is 0.04. As for C10A U28C G30C G44U C45G, the self-cleavage came to 0. C10G A11G C42G: the self-cleavage stood at 0. Consider C10A G27U G30U, for which the self-cleavage amounted to 0.03. Regarding C10A G22A A26C C45U, the self-cleavage was 0.01. The value for C10G A12C C13U G21C G33A G36A was 0; that for C10G A11C C13A C42U was 0.01; that for C10G A11U C18A U34A G44C was 0.02. Turning to C10A G21U G29A C46G, the self-cleavage came out at 0.03. Turning to C10A G27C A41C, the self-cleavage came out at 0.01.

As to C10A U20A U34C A41C, the self-cleavage was 0.01.

For the variant C10A G40U C46U, the self-cleavage was 0.03.

As for C10A G22C A25C, the self-cleavage amounted to 0.03. On to C10A G19U G21C G22U C23A U28C, for which the self-cleavage stood at 0. On to C10A G22A C37G G44U, for which the self-cleavage was determined as 0.

C10A U20A A26C: the self-cleavage was 0.01. The value for C10A G30U G36U was 0. As for C10G A11C C23A, the self-cleavage is 0.01. On to C10A U20G A26U, for which the self-cleavage was 0.03. For the variant C10A G29C C31G, the self-cleavage was 0.02. To C10G A11G C31U belongs 0.01; to C10A G30A U38G C42U G44A, 0.01; to C10A G19C U20C U28G, 0. To C10A U32G U34A belongs 0.01; to C10A G33C C37U, 0.02.

Consider C10G A11U A16G C18G, for which the self-cleavage is 0.02.

In the case of C10A U20C G36U, the self-cleavage was found to be 0.02. As to C10A G30U U38A G40A, the self-cleavage worked out at 0.02. With C10A G21C A41C, the self-cleavage was 0. The value for C10A G19U C42U was 0.02; that for C10A G36U C37A A39U was 0; that for C10A G27C G36C C45U was 0.06. The value for C10A U34C G44U was 0.03; that for C10A G19C G21A U38G C42G was 0.01; that for C10A U43C G44C was 0.01.

As to C10A G27U U34G, the self-cleavage was determined as 0.06. Take C10A G22A A39C U43A G44C: the self-cleavage came to 0.01. Turning to C10A G35U C37A U38A G40A, the self-cleavage came to 0.02. With C10A G29U A39G, the self-cleavage was determined as 0.03.

With C10G A11U A14U C23U, the self-cleavage was 0.02. To C10G A11C C18G G40U belongs 0. To C10A G19C G22A A24C C46U belongs 0.04; to C10A G30A C31G, 0.01. The value for C10A G29U A39U A41C C46U was 0.03; that for C10A G29C G30A was 0.05; that for C10A U28C C42A was 0.04. On to C10G A11C G30A A39U, for which the self-cleavage stood at 0.02. For C10G A11U C15G U34C, the self-cleavage was 0.01.

With C10A G27A U43A, the self-cleavage was found to be 0.

In the case of C10A G19U U28G, the self-cleavage was 0.03.

Consider C10A G19U A24C G33U U38C, for which the self-cleavage worked out at 0.02.

C10A G27A A41C: the self-cleavage was 0.03. In the case of C10A G36A C45U, the self-cleavage was found to be 0.

For C10A G21C U28G A39U, the self-cleavage was 0.07.

For the variant C10A G19U G36U, the self-cleavage stood at 0.

Take C10A G19C G35U C37U: the self-cleavage stood at 0.01. Take C10G A11G U28G G35A A41G: the self-cleavage is 0.01. To C10A G33U A41C belongs 0.03; to C10G A11U A12C, 0.04.

Turning to C10A U28G G30U C31A G35U G36A G40C C45A, the self-cleavage was determined as 0.01. The value for C10A G22C G40C was 0.03; that for C10A G22U U38A was 0.22. C10A U20C U28C G44U: the self-cleavage stood at 0.03.

Regarding C10A U38A C42A, the self-cleavage stood at 0.1. As for C10A G22U G35C, the self-cleavage amounted to 0.02. As to C10A G19C C42G, the self-cleavage was found to be 0.01.

In the case of C10A G29U G44C, the self-cleavage amounted to 0.32.

C10A G29C C42U: the self-cleavage was determined as 0.03. The value for C10G A11G G22C U32A G36U A41U was 0; that for C10A U20C G27C G30U was 0.03. Turning to C10A G22A C23U C42A, the self-cleavage turned out to be 0.03. For C10A G22A U38C, the self-cleavage amounted to 0.45. To C10A U28G C31A G35A C37U U43C belongs 0.

Regarding C10A G30U G40A, the self-cleavage stood at 0.04. C10A U28A C31A: the self-cleavage was 0.05. The value for C10A G21C U28G G36A was 0.01; that for C10A G33C C45A was 0.02. In the case of C10A G22U C23A G40U, the self-cleavage worked out at 0.01. Take C10A G22A U28C: the self-cleavage is 0.04. Regarding C10G A11U U32C, the self-cleavage amounted to 0.04. As for C10A G33A U34G, the self-cleavage amounted to 0. For the variant C10G A11U A25U, the self-cleavage was 0.01. C10A U28G G33A: the self-cleavage stood at 0. The value for C10G A11C C42A was 0.02; that for C10A G21A G22C A26G was 0.05; that for C10A G27A C31U C42U was 0.01.

With C10A G27U C31G C46A, the self-cleavage was 0.04. In the case of C10A U28C G33U G40A, the self-cleavage was determined as 0. To C10A G30U G33U G35A C37A U43C belongs 0.01; to C10A G35A C37A A39G, 0.01. As for C10A G19U A39U, the self-cleavage stood at 0.16. Regarding C10A G19U A39G, the self-cleavage was determined as 0.01. As to C10A G21U U34G, the self-cleavage is 0.01.

In the case of C10A G27U U43C, the self-cleavage was 0.02. As to C10A U20G C46G, the self-cleavage turned out to be 0.01. As to C10A U20C U34C, the self-cleavage turned out to be 0.02. The value for C10A U20G G44U was 0.03; that for C10A G19U G29U was 0.03. As to C10A G33C G40A, the self-cleavage was 0.07.

Consider C10A U34A A41C U43A, for which the self-cleavage was 0.02. With C10A U34C C42G, the self-cleavage was found to be 0.05. Take C10A G27U G35A G44C: the self-cleavage came to 0.01. With C10A G29A G30C C46U, the self-cleavage was 0.07. Take C10A G21A A26U G36U G40A: the self-cleavage came to 0.01.

For C10A U34C A41U, the self-cleavage amounted to 0.05.

On to C10A G21U G40A, for which the self-cleavage turned out to be 0.01. Turning to C10A G27A G33U, the self-cleavage is 0.08. With C10A U28A A39G, the self-cleavage was determined as 0.01. With C10G A11U U32C G33A G35C C37G, the self-cleavage was 0. To C10A G27U G33C belongs 0.02; to C10A G21U G44C, 0.04. On to C10A G22U C31A, for which the self-cleavage amounted to 0.01.

As for C10A G27C G29U U32A, the self-cleavage amounted to 0.01. On to C10A U32C G33U C45U, for which the self-cleavage turned out to be 0.01.

Consider C10A G21U A24G, for which the self-cleavage is 0.03. For the variant C10G A11C A14G G22U C31U A39C, the self-cleavage came to 0.

As for C10A G36A A41C, the self-cleavage was determined as 0.02. Regarding C10G A11U G17U G21U G35U G36A, the self-cleavage came to 0.02. The value for C10G A11C A25G was 0.01; that for C10A G33A U43C was 0.02; that for C10A G22U C23A was 0.04. Turning to C10A G22U A26C G30U U43A, the self-cleavage was found to be 0. In the case of C10A G19U A25U A26G G35U, the self-cleavage is 0.01. To C10A G22A A24G U32A belongs 0.02; to C10A U38G A39G, 0.01; to C10A G21U A24C U34G A39G, 0.01. Take C10A G21A C42U G44U: the self-cleavage stood at 0.

Take C10A G19U G33U: the self-cleavage came to 0. Consider C10A G19U C37A, for which the self-cleavage is 0. As for C10A G27A C42U G44U, the self-cleavage was 0.01. For C10A G21U G30U, the self-cleavage was 0.02. With C10A G22C G44C, the self-cleavage is 0.02. In the case of C10A G22U A26G C46U, the self-cleavage was 0.03. Take C10A G21A C23U C46A: the self-cleavage was 0. Regarding C10A G21C G40A U43G, the self-cleavage came to 0.01. Consider C10A G21A A26U, for which the self-cleavage stood at 0. Turning to C10A G19U G36U C37A, the self-cleavage came out at 0. As for C10G A11U C37U, the self-cleavage was found to be 0.01. As to C10A G21A C23U C31U G44C, the self-cleavage was found to be 0.01. As for C10G A12C C13U, the self-cleavage came to 0.02. To C10A G33A G40A belongs 0.03.

As for C10A G33A G40U, the self-cleavage was found to be 0.02. C10A G35A G36C: the self-cleavage is 0.02.

Regarding C10A U32C G44A, the self-cleavage was 0.04.

As to C10G A11G G30A, the self-cleavage was 0. As to C10A G29U G35U, the self-cleavage was found to be 0.02. C10A U32G A39U C42U: the self-cleavage came to 0.02.

Regarding C10A G35C U43A, the self-cleavage stood at 0.05. As for C10A U20C G35U G36C, the self-cleavage stood at 0.15. To C10A U32C U34A C46A belongs 0.02.

For C10A U20C C46A, the self-cleavage was 0.05. For C10A G30A G33U C42U C46A, the self-cleavage amounted to 0.02. The value for C10A G19U A25G U32A was 0.02; that for C10G A11C U28A C45G was 0.01; that for C10A G30A U38C was 0.25. For C10A G27A G30U G36U, the self-cleavage was found to be 0.

For the variant C10A G30C G44A, the self-cleavage was 0.03. For the variant C10A G19U G33U G36A, the self-cleavage was found to be 0.01.

(Values after the RNAGym collection of RNA variant scans (doi:10.7554/elife.90254).)
